The text below walks through data of patent US20230117205A1, “B7-H4 ANTIBODY-DRUG CONJUGATES FOR THE TREATMENT OF CANCER” (SEAGEN INC., priority 2021, published 2023).

Conditions in all cases: 48 hours; 1 μg/mL ADC or mAb or 100 nM MMAE
Test [1] has as its system SKBR3 cells. In words: HMGB1 release (ELISA). As to the method: (§1) SKBR3 cells were cultured in RPMI containing 10% fetal bovine serum (FBS) and penicillin/streptomycin (P/S) and passaged every 3-4 days at ˜1:5 dilution. On day 0, cells were collected with 0.05% Trypsin-EDTA (Gibco #25300-054), resuspended in complete media, and ˜120,000 cells in 1 mL media were added to each well of a 12-well plate (ThermoFisher Scientific #150628). The next day, the media from each well was removed and replaced with 1 mL of fresh media containing 1 μg/mL ADC or mAb or 100 nM MMAE. On day 3, 48 hours after treatment, media from each well of the 12-well plate was transferred to a 96-well, 2 ml plate (USA Scientific #18962800) and spun at 1500 rpm for 5 minutes (min) to remove cell debris and non-adherent “floating” cells. Then 200 mL of supernatants were transferred to a standard 96-well, round-bottom plate (ThermoFisher Scientific #163320). These supernatants were used immediately for the ATP assay (described below) or frozen at −20° C. for the HMGB1 assay (described below). […]
(§2) ATP release was evaluated as follows immediately after collection of supernatants as described above. […] The plates were mixed briefly, sealed, and analyzed on an Envision plate reader within 20 minutes following the addition of the CellTiter Glo. HMGB1 release was evaluated using the HMGB1 Express ELISA kit according to the manufacturer's protocol (Tecan #30164033).

For test [2], the system named is SKBR3 cells. In words: Calreticulin exposure (flow cytometry). The test is classed as cell-based, human. As to the method:
Calreticulin exposure was evaluated by flow cytometric staining as follows. Live/Dead (L/D) staining buffer [ThermoFisher Scientific #L10119] was prepared by reconstituting the dye in 50 μL of DMSO and transferring to a 50 mL conical containing 50 mL of PBS. The cells collected above were resuspended in 1 mL of freshly prepared L/D staining buffer and incubated for 20 min at room temperature (RT). Next, the cells were pelleted and washed twice with FACS buffer (PBS containing 2% FBS). Annexin V/Calreticulin/PI staining solution was prepared as follows: • FACS buffer (2% FBS/PBS)—90 μL per well • 10× Annexin V binding buffer (Fisher Scientific #BDB556454)—10 μL per well • Annexin V-FITC (Fisher Scientific #BDB556419)—2 μL per well • Calreticulin-A647 (Abcam #ab196159)—2 μL per well • PI (Propidium Iodide, ThermoFisher Scientific #R37169)—5 μL per well
Cells in each well were resuspended in 100 μL staining solution and incubated for 20 min at RT. Next, the cells were washed twice with 1 mL of FACS/Annexin V binding buffer (1×), resuspended in 250 μL FACS/Annexin V staining buffer, and analyzed on an Attune flow cytometer (ThermoFisher Scientific).

Test [3] concerns SKBR3 cells. In words: ATP release (CellTiter Glo on supernatants). As to the method: as §1, §2
On the technique in general: Cellular ATP, detected with luciferase, serves as a proxy for viable cell number.

As to `CC[C@H](C)C([C@@H](CC(=O)N1CCC[C@H]1[C@H](OC)[C@@H](C)C(=O)N[C@H](C)[C@@H](O)c1ccccc1)OC)N(C)C(=O)[C@@H](NC(=O)[C@@H](NC)C(C)C)C(C)C` (stereo partly drawn) [MMAE, monomethyl auristatin E, reference compound], the HMGB1 release result in test [1] was “release of ATP and HMGB1”. In test [2], the “surface exposure of calreticulin” value is “surface exposure of calreticulin”. The ATP release result in test [3] was “led to the release of ATP”.

As for “SGN-B7H4V: ADC of fully human IgG1 anti-B7-H4 mAb conjugated to monomethyl auristatin E (MMAE) via a protease-cleavable valine-citrulline linker (vedotin)”, in test [1], the HMGB1 release entry is “release of ATP and HMGB1”. In addition, the “surface exposure of calreticulin” value in test [2] is listed as “surface exposure of calreticulin”. Also, the ATP release result in test [3] was “led to the release of ATP”.
